This is one part of the list. Interaction screen of human proteins with wild-type SARS-CoV-2 proteins by split-DHFR complementation in yeast, 1 µg/mL methotrexate. Value = fitness of the pair (three or more lineages) minus that of the viral protein without a human partner, on a scale set by negative (0) and fused positive (1) controls, mean of up to three cultures; higher = more likely to interact. Active = false discovery rate below 0.05 (one-sided t-test) in at least one culture. Nearly all pairs are not hits, and differences among them are mostly noise (correlation between cultures about 0.3); most hits were seen in one culture only. Human sequences are the Swiss-Prot entries looked up by gene name; the clone may be another isoform. NSP2 values were corrected by the authors for a growth advantage. Listed are human proteins with a hit and a random twelfth of the others.
Each substance was assayed on SARS-CoV-2 NSP12 (assay: yeast fitness gain over the viral ORF with no human partner (scaled fitness); higher = more likely to interact).
Procedure: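 Split mouse DHFR complementation in pooled diploid yeast: human ORFeome clones carry one fragment and viral ORFs the other; barcoded lineages compete in 1 µg/mL methotrexate and fitness is read by barcode sequencing in up to three cultures.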
In the case of HYDIN, Q4G0P3, the yeast fitness gain is reported as inactive: -0.0959.
With HSPB7, Q9UBY9 the yeast fitness gain was inactive: -0.0169.
ZNF673, Q5JUW0 was tested, and the yeast fitness gain was inactive: -0.0459.
MT2A, P02795 was tested, and the yeast fitness gain was inactive: -0.118.
BNIP3L, O60238 was tested, and the yeast fitness gain was inactive: -0.349.
For PTBP1, P26599, the yeast fitness gain was inactive: 0.222.
For DESI2, Q9BSY9, the yeast fitness gain was inactive: -0.0481.
EGR3, Q06889 was tested, and the yeast fitness gain was inactive: 0.0415.
With FAM136A, Q96C01 the yeast fitness gain was inactive: -0.0492.
For TIMM50, Q3ZCQ8, the yeast fitness gain was inactive: 0.0688.
In the case of CABP5, Q9NP86, the yeast fitness gain is reported as inactive: 0.0534.
For IDH3B, O43837, the yeast fitness gain was inactive: 0.0932.
With POLD2, P49005 the yeast fitness gain was inactive: -0.00686.
For TET2, Q6N021, the yeast fitness gain was inactive: -0.259.
For HOXC8, P31273, the yeast fitness gain was inactive: -0.018.
With OR4D1, Q15615 the yeast fitness gain was inactive: -0.3.
In the case of MAFF, Q9ULX9, the yeast fitness gain is reported as inactive: -0.0719.
With ZNF517, Q6ZMY9 the yeast fitness gain was inactive: 0.0402.
With BHLHA15, Q7RTS1 the yeast fitness gain was inactive: -0.186.
In the case of TLX3, O43711, the yeast fitness gain is reported as inactive: 0.109.
In the case of PRR14L, Q5THK1, the yeast fitness gain is reported as inactive: 0.00789.
For TLK2, Q86UE8, the yeast fitness gain was inactive: -0.0861.
For ZFYVE26, Q68DK2, the yeast fitness gain was inactive: 0.0215.
In the case of PTCD1, O75127, the yeast fitness gain is reported as inactive: -0.177.
RALYL, Q86SE5 was tested, and the yeast fitness gain was inactive: 0.0453.
For KLF6, Q99612, the yeast fitness gain was inactive: -0.13.
With ZNF785, A8K8V0 the yeast fitness gain was inactive: -0.0584.
In the case of IHH, Q14623, the yeast fitness gain is reported as inactive: 0.0116.
For NDRG4, Q9ULP0, the yeast fitness gain was inactive: 0.0252.
For SRGAP1, Q7Z6B7, the yeast fitness gain was inactive: -0.264.
For RGS3, P49796, the yeast fitness gain was inactive: 0.0887.
With HEATR1, Q9H583 the yeast fitness gain was inactive: -0.0383.
OXCT1, P55809 was tested, and the yeast fitness gain was inactive: -0.0341.
FAM19A3, Q7Z5A8 was tested, and the yeast fitness gain was inactive: -0.0326.
MCM9, Q9NXL9 was tested, and the yeast fitness gain was inactive: -0.505.
MAGEA10, P43363 was tested, and the yeast fitness gain was inactive: -0.0635.
For HAUS7, Q99871, the yeast fitness gain was inactive: 0.03.

— the supplement of paper PMC11741623
